4 molecules from the supplement of paper PMC11741623 can be followed below.

This is one part of the list. Interaction screen of human proteins with wild-type SARS-CoV-2 proteins by split-DHFR complementation in yeast, 1 µg/mL methotrexate. Value = fitness of the pair (three or more lineages) minus that of the viral protein without a human partner, on a scale set by negative (0) and fused positive (1) controls, mean of up to three cultures; higher = more likely to interact. Active = false discovery rate below 0.05 (one-sided t-test) in at least one culture. Nearly all pairs are not hits, and differences among them are mostly noise (correlation between cultures about 0.3); most hits were seen in one culture only. Human sequences are the Swiss-Prot entries looked up by gene name; the clone may be another isoform. NSP2 values were corrected by the authors for a growth advantage. Listed are human proteins with a hit and a random twelfth of the others.

The labels stand for the following.
B1: TBATA, Q96M53 (protein)
chain: MATDVQLADYPLMSPKAELKLEKKSGRKPRSPRDSGPQKELVIPGIVDFERIRRALRTPKPQTPGTYCFGRLSHHSFFSRHHPHPQHVTHIQDLTGKPVCVVRDFPAPLPESTVFSGCQMGIPTISVPIGDPQSNRNPQLSSEAWKKELKELASRVAFLTKEDELKKKEKEQKEEPLREQGAKYSAETGRLIPASTRAVGRRRSHQGQQSQSSSRHEGVQAFLLQDQELLVLELLCRILETDLLSAIQFWLLYAPPKEKDLALGLLQTAVAQLLPQPLVSIPTEKLLSQLPEVHEPPQEKQEPPCSQSPKKTKISPFTKSEKPEYIGEAQVLQMHSSQNTEKKTSKPRAES
B2: SERP2, Q8N6R1 (protein)
chain: MVAKQRIRMANEKHSKNITQRGNVAKTLRPQEEKYPVGPWLLALFVFVVCGSAIFQIIQSIRMGM
B3: SH3GL3, Q99963 (protein)
chain: MSVAGLKKQFHKASQLFSEKISGAEGTKLDDEFLDMERKIDVTNKVVAEILSKTTEYLQPNPAYRAKLGMLNTVSKIRGQVKTTGYPQTEGLLGDCMLKYGKELGEDSTFGNALIEVGESMKLMAEVKDSLDINVKQTFIDPLQLLQDKDLKEIGHHLKKLEGRRLDYDYKKKRVGKIPDEEVRQAVEKFEESKELAERSMFNFLENDVEQVSQLAVFIEAALDYHRQSTEILQELQSKLQMRISAASSVPRREYKPRPVKRSSSELNGVSTTSVVKTTGSNIPMDQPCCRGLYDFEPENQGELGFKEGDIITLTNQIDENWYEGMIHGESGFFPINYVEVIVPLPQ
B4: TMEM25, Q86YD3 (protein)
chain: MALPPGPAALRHTLLLLPALLSSGWGELEPQIDGQTWAERALRENERHAFTCRVAGGPGTPRLAWYLDGQLQEASTSRLLSVGGEAFSGGTSTFTVTAHRAQHELNCSLQDPRSGRSANASVILNVQFKPEIAQVGAKYQEAQGPGLLVVLFALVRANPPANVTWIDQDGPVTVNTSDFLVLDAQNYPWLTNHTVQLQLRSLAHNLSVVATNDVGVTSASLPAPGLLATRVEVPLLGIVVAAGLALGTLVGFSTLVACLVCRKEKKTKGPSRHPSLISSDSNNLKLNNVRLPRENMSLPSNLQLNDLTPDSRAVKPADRQMAQNNSRPELLDPEPGGLLTSQGFIRLPVLGYIYRVSSVSSDEIWL

One test addresses SARS-CoV-2 M. The test can be described thus: yeast fitness gain over the viral ORF with no human partner (scaled fitness); higher = more likely to interact. Here is the method: (§1)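 Split mouse DHFR complementation in pooled diploid yeast: human ORFeome clones carry one fragment and viral ORFs the other; barcoded lineages compete in 1 µg/mL methotrexate and fitness is read by barcode sequencing in up to three cultures.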
Consider B1, for which the yeast fitness gain was inactive: 0.0835.
Take B2: the yeast fitness gain was inactive: 0.0451.
On the same count and under the same terms, then B3, with inactive: 0.101.
For B4, the yeast fitness gain was inactive: -0.0292.

The target of the next test is SARS-CoV-2 NSP10. The description is as above. Here is the method:
as §1
Regarding B1, the yeast fitness gain was inactive: 0.00387.
Still for that read-out and setting: then B2, with inactive: 0.0527; and B3, with inactive: 0.0122.
Same read-out and setting: then B4, with inactive: -0.0773.

Another test deals with SARS-CoV-2 NSP12. The description is as above. On the procedure: as §1
In the case of B1, the yeast fitness gain is inactive: -0.102.
In the case of B2, the yeast fitness gain is inactive: 0.0145.
For the molecule B3, the yeast fitness gain was inactive: -0.026.
Regarding B4, the yeast fitness gain was inactive: 0.00883.

A further test deals with SARS-CoV-2 NSP13. The test is described as above. Here is the method: as §1
On to B1, for which the yeast fitness gain is inactive: -0.115.
Turning to B2, the yeast fitness gain was inactive: -0.0248.
The same measure, in the same setting: to B3 belongs inactive: 0.116; to B4, inactive: 0.00781.

The target in another test is SARS-CoV-2 NSP2. The description is as above. Here is the method: as §1
Turning to B1, the yeast fitness gain was inactive: -0.356.
B2: the yeast fitness gain is inactive: -0.143.
For the molecule B3, the yeast fitness gain was inactive: -0.0887.
The same measure, in the same setting: to B4 belongs inactive: -0.133.

The next test deals with SARS-CoV-2 NSP8. The test is described as above. Here is the method:
as §1
For B1, the yeast fitness gain is inactive: 0.0706.
The same measure, in the same setting: then B2, with inactive: 0.0479; and B3, with inactive: 0.0153.
As for B4, the yeast fitness gain was inactive: 0.0355.

The target in another test is SARS-CoV-2 ORF10. The description is as above. Here is the method:
as §1
With B1, the yeast fitness gain was inactive: -0.012.
With B2, the yeast fitness gain was inactive: -0.0955.
On the same count and under the same terms, to B3 belongs inactive: 0.0297.
Regarding B4, the yeast fitness gain was inactive: 0.0905.

A further test deals with SARS-CoV-2 ORF3B. Described as above. Here is the method:
as §1
In the case of B1, the yeast fitness gain is inactive: -0.127.
In the case of B2, the yeast fitness gain is inactive: 0.0489.
The same measure, in the same setting: then B3, with inactive: -0.0241; and B4, with inactive: 0.0408.

The target of another test is SARS-CoV-2 ORF6. The test is described as above. Here is the method:
as §1
As for B1, the yeast fitness gain was inactive: 0.128.
Same read-out and setting: then B2, with inactive: 0.0174; and B3, with inactive: 0.0312; and B4, with inactive: -0.0737.

Another test concerns the target SARS-CoV-2 ORF7B. Described as above. On the procedure: as §1
For B1, the yeast fitness gain was inactive: 0.146.
Consider B2, for which the yeast fitness gain was inactive: 0.0254.
With B3, the yeast fitness gain is inactive: 0.0851.
As to B4, the yeast fitness gain was inactive: -0.00142.

The next test addresses SARS-CoV-2 ORF8. The test is described as above. Here is the method:
as §1
With B1, the yeast fitness gain is inactive: -0.0818.
Same read-out and setting: to B2 belongs inactive: 0.0556.
Still for that read-out and setting: to B3 belongs inactive: -0.0857; to B4, inactive: -0.00777.

Another test concerns the target SARS-CoV-2 ORF9B. Described as above. Here is the method:
as §1
Take B1: the yeast fitness gain was inactive: 0.0287.
On the same count and under the same terms, then B2, with inactive: 0.0116; and B3, with inactive: 0.0276; and B4, with inactive: -0.0244.

A further test concerns the target SARS-CoV-2 S. Described as above. On the procedure: as §1
B1: the yeast fitness gain is inactive: -0.0863.
As to B2, the yeast fitness gain was inactive: -0.147.
Same read-out and setting: then B3, with inactive: -0.00767; and B4, with inactive: -0.0447.

In the next test the target is SARS-CoV-2 NSP1. The description is as above. Here is the method:
as §1
In the case of B2, the yeast fitness gain was inactive: 0.02.
In the case of B3, the yeast fitness gain was inactive: 0.0822.
Still for that read-out and setting: to B4 belongs inactive: -0.0293.

For the next test, the target named is SARS-CoV-2 NSP15. The test is described as above. Here is the method: as §1
In the case of B2, the yeast fitness gain is inactive: -0.0432.

The next test has as its target SARS-CoV-2 NSP5. The description is as above. Here is the method: as §1
B2: the yeast fitness gain was inactive: -0.118.
For the molecule B3, the yeast fitness gain was inactive: 0.0103.
The same measure, in the same setting: to B4 belongs inactive: 0.0146.

For another test, the target named is SARS-CoV-2 NSP6. The description is as above. Here is the method: as §1
As for B2, the yeast fitness gain was inactive: -0.152.
Turning to B3, the yeast fitness gain is inactive: 0.0873.
As for B4, the yeast fitness gain is inactive: 0.0644.

In the next test the target is SARS-CoV-2 NSP7. The description is as above. Here is the method: as §1
As to B2, the yeast fitness gain was inactive: -0.166.
Same read-out and setting: then B3, with inactive: -0.017; and B4, with inactive: 0.0144.

For another test, the target named is SARS-CoV-2 NSP9. The test is described as above. Here is the method:
as §1
B2: the yeast fitness gain was inactive: -0.0319.
Consider B3, for which the yeast fitness gain was inactive: -0.0307.
Regarding B4, the yeast fitness gain is inactive: -0.0578.

The target in a further test is SARS-CoV-2 ORF7A. Described as above. Here is the method:
as §1
As for B2, the yeast fitness gain was inactive: -0.00754.
For the molecule B3, the yeast fitness gain was inactive: 0.0934.
With B4, the yeast fitness gain is inactive: -0.0596.

The target in another test is SARS-CoV-2 ORF9Bwu (the 73-codon ORF). The test is described as above. On the procedure:
as §1
As to B2, the yeast fitness gain is inactive: -0.101.
Still for that read-out and setting: then B4, with inactive: -0.174.

The target of another test is SARS-CoV-2 N. The test is described as above. On the procedure: as §1
Regarding B3, the yeast fitness gain was inactive: -0.172.
With B4, the yeast fitness gain is inactive: 0.105.

The target of a further test is SARS-CoV-2 NSP14. Described as above. On the procedure: as §1
For B3, the yeast fitness gain was inactive: 0.0155.

The next test has as its target SARS-CoV-2 NSP16. The test is described as above. On the procedure:
as §1
Regarding B3, the yeast fitness gain is inactive: 0.0381.

A further test addresses SARS-CoV-2 NSP4. Described as above. On the procedure: as §1
Take B3: the yeast fitness gain was inactive: 0.0484.

A further test deals with SARS-CoV-2 ORF3A. The test is described as above. Here is the method: as §1
Regarding B4, the yeast fitness gain is inactive: -0.224.
